Among the data in the RNAGym collection of RNA variant scans (doi:10.7554/elife.90254) are self-cleavage values, retold here.

The source gives no read counts; variants with many changes may rest on few reads.

The labels stand for the following.
B1: LINE1-full (parent)
chain: UACGUAGGUGGUUUUCCCCUGAUAGUGCUAAGGGGGCCUGGAAGUUUGGACUGGGCAGAGCUCAACACAGCGUGGCAAAGUGGCUGUGGCUAGACUGCCUCUCUGGAUUCCUCGUCACUCAGCAGGGCAUCUCUGAGAGAAAUGCC

The variants in the data set derive from B1. As to the kind of experiment: self-cleavage, relative activity (ratio to wild type); higher = more cleavage; in vitro, sequencing; the parent is a self-cleaving ribozyme.
For the variant UACGUAGGUGGUUUUCCCCUGAUAGUGCUAAGGGGGCCUGGGAGUUUGGACUGGGCAGAGCUCAACACAGCGUGGCAAAGUGGGUGUGGCUAGACUGCCUCUCUGGAUUCCUCGUCACUCAGCAGGGCAUCUCUGGGAGAAAUGCC [A42G C84G A136G], the self-cleavage turned out to be 0.15. As for UACGUAGGUGGUUUUCCCCUGUUAGUGCUAAGGGGGCCUGGAAGUUCGGACUGGGCUGAGCUCAACACAGCGUGGCAAAGUGGCUGUGGCUAGACUGCCUCUCUUGAUUCCUCGUCACUCAGCAGGGCAUCUCUGAGAGAAAUGCC [A22U U47C A57U G105U], the self-cleavage stood at 0.18. On to UACGUAGGUGGUUUUCCCCUGAUAGUGCUAAGGGGGCCUGGAAGUUUGGACUGGGCAGAGCUCAACACAGCGUGGCAAAGUGGCUGUGGCUAGACUGCCUCUCUGGAUUCCUCGUUACUCAGCAGGGCCUCUCUGAGAGAGAUGCC [C116U A129C A141G], for which the self-cleavage was determined as 0.61. The result for UACGUAGGUGGUUUUCCCCUGAUAGUGCUAAGGGGGCCUGGAAGUUUGGACUGGGCAGAGCUCAACACAGCGUGGCAAAGUGGCUGUGGCUAGACUGCCUCUCUGGAUUCCCCGUCACUCAGCGGGGCAUCUCUGAGAGAAAAGCC [U112C A124G U143A] reads 1.34. For the variant UACGUAGGUGGUUCUCCCCUGAUAGUGCUAAGGGGGCCUGGGAGUUUGGACUGGGCAGAGCUCAACACAGCGUGGCAAAGUGGCUGUGGCUAGACCGCCUCUCUGGAUUCCUCGUCACUCAGCAGGGCAUCUCUGGGAGAAAUGCC [U14C A42G U96C A136G], the self-cleavage was determined as 0.51. Take UACGUAGGUGGUUUUCCCCUGAUAGUGCUAAGGGGGCCUGGAAGUUUGGACUGGGCAGAGCUCAACACAGCGUGGCAAAGUGGCUGUGGCUAGACUGACUCUCUGGAUUCCUCGUCUCUCAGCAGGGCGUCUCUGAGAGAAAUGCC [C98A A117U A129G]: the self-cleavage turned out to be 0.28. The result for UACGUAGGUGGUUUUUCCCUGAUAGUGCUAAGGGGGCCUGGAAGUUUGGACUGGGGAGAGCUCAACACAGCGUGGCAAAGUGGCUGUGGCUAGACCGCCCCUCUGGGUUCCUCGUCACUCAGCAGGGCAUCUCUGAGAGAAAUGCC [C16U C56G U96C U100C A107G] reads 0; that for UACGUAGGUGGUUUUCCCCUGAUAGUGCUAAGGGGGCCUGGAGGUUUGGACUAGGCAGAGCUCAACACAGCGUGGCAAAGUGGCUGUGGCUCGACUGCCUCUCUGGAUUCCUCGUCACUCAGCAGGGCAUCUCUGAGAGAAAUGCC [A43G G53A A92C], 0.15.

For the variant UACGUAGGUGGUUUUCCCCUGAUAGUGCUAAGGGGGCCUGGAAGUCUGGACUGGGCAGAGCUCAACACUGCGUGGCAAAGUGGCUGUGGCUAGACUGCCACUCUGGAUUCCUCGUCACUCAGCAGGGCAUCUCUGAGAGAAAUGCC [U46C A69U U100A], the self-cleavage came out at 0.09. Regarding UACGUAGGUGGUUUUCCCUUGAUAGUGCUAAGGGGGCCUGGAAGUUUGGACUGGGCAGAGCUCAACACAGCGUGGCAAAGUGGCUGUGGCUAGACUGCCUCCCUGGAUUCCUCGUCACGCAGCAGGGCAUCUCUGAGAGAAAUGCC [C19U U102C U119G], the self-cleavage turned out to be 1.08. As to UACGUAGGUGGUUUUCCCCUGACAGUGCUAAGGGGGCCUGGAAGUUUGGACUGGGCAGAGCUCAACACAGCGUGGCAAAGUGGCUGUGGCUAGACUGCCUCUCUGAAUUCCUCGUCACUCUGCAGGGCAUCUCUGAGAGAAAUGCC [U23C G106A A121U], the self-cleavage was 1.52. The result for UACGUAGGUGGCUAUCCCCUGAUAGUGCUAAGGGGGCCUGGAAGUCUGGACUGGGCAGAGCUCAACACAGCGUGGCAAAGUGACUGUGGCUAGACCGCCUCUCUGGAUUCCUCGUCACUCAGCAGGGCGUCUCUGAGAGUAAUGCC [U12C U14A U46C G83A U96C A129G A140U] reads 0.49. As to UACGUAGGUGGUCUUCCCCCGAUAGUGCUAAGGGGGCCUGGAAGUUUGGACUGGGCAGAGCUCAACACAGCGUAGCAAAGUGGCUGUGGCUAGACUGCCUCUCUGGAUUCCUCGUCACUCAGCAGGGCAUCUCUGAGAGAAAUGCC [U13C U20C G74A], the self-cleavage was 1.03.

As to UACGUAGGCGGUUUUCCCCUGAUAGUGCUGAGGGGGCCUGGAAGUUAGGACUGGGCAGAGCUCAACACAGCGUGGCAAAGUGGCUGUGGCUAGACUGCCUCUCUGGAUUCCUCGUCACUCAGCAGGGCAUCUCUGAGGGAAAUGCC [U9C A30G U47A A138G], the self-cleavage stood at 0.92.

Turning to UACGUAGGUGGUCUUCUCCAGAUAGUGCUAAGGGGGCCUGGAAGUUUGGACUGGGCAGAGCUCAACACAGCGUGGCAAAGUGGCUGUGGCUAGACUGCCCCUCUGGAUUCCUCGUCACUCAGCAGGGCAUCUCUGAGAGAAAUGCC [U13C C17U U20A U100C], the self-cleavage turned out to be 0. The result for UACGUAGGUGGUUUUCCCCUGAUAGUGCUAAGGGGGCCUGGAAGUUUGGACUGAGCAGGGCUCAACACAGCGUGGCUAAGUGGCUGUGGCUAGACUGCCUCUCUGGAUUCCUCGUCACUCAGCGGGGCAUCUCUGAGAGAAAUGCC [G54A A59G A77U A124G] reads 0.

As to UACGUAGGUGGUUUUCCCCUGAUAGUGCUAAGGGGGCCUGGAAGUUUGGACUGGGCAGAGCUCGGCACAGCGUGGCAAAGUGGCUGUGGCUAGACUGCCUCUCUGGAUUCCUCGUCACUCAGCAGGGCAUCUCUGGGAGAAAUGCC [A64G A65G A136G], the self-cleavage stood at 0. The result for UACGUAGGUGGUUUACCCCCGAUAGUGCUAAGGGGGCCUGGAAGUUUGGACUGGGCAGAGCUCAACACAGCGUGGCAAAGUGGCUGUGGCUAGACUGCCUCUCUGGAUUCCUCGUCACUCAGCAGGGCGUCUCUGAGAGAAAAGCC [U15A U20C A129G U143A] reads 1.35; that for UACGUAGGUGGUUUUCCCCUGAUAGUGCCAAGGGGGCCUGGAAGUUUGGACUGGGCAGAGCUCAACGCAGCGUGGCAUAGUGGCUGUGGCUAGACUGCCUCUCUGGAUUCCUCGUCACUCAGCAGGGCAUCUCUGAGAGAAAUGCC [U29C A67G A78U], 0.66.
